Test results reported in PubChem BioAssay AID1963576 (National Center for Advancing Translational Sciences (NCATS), 2024).
Hit rate of the full screen: of about 46,000 compounds, about 60 (0.1%) were called active. Not shown: some 3% with an inconclusive outcome. Calls come from the whole dose curve; as a rule, active = well fitted inhibition curve with a large enough effect; inconclusive = small, poorly fitted or top-dose-only effect; inactive = no such curve, though single readings can be large or run the other way. This is one part of the list.

Experiment: Primary qHTS assay for Inhibitors of ovarian cancer metastasis using an organotypic tumor microenvironment (TME) model.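 For activity change, negative = inhibition: plate controls were DMSO wells for no effect and tomatine positive control wells for full effect.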 Note: nearly all actives have a fitted effect of over 65% in size.
Details: SKOV3ip1-GFP adhesion/invasion on 3D omental model, fluorescence; series mostly up to 45.8 µM; activity change, negative = inhibition: at the top concentration
Summary of the method: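 A 3D layer of primary human omental fibroblasts, mesothelial cells, fibronectin and collagen I, grown 48 hr, received SKOV3ip1-GFP cells in serum-free medium plus compounds at 0.36-46 umol/L. After 2 hr RT and 16 hr 37 C, fixed adherent GFP cells were counted; normalized to DMSO and tomatine.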

Which “activity change, negative = inhibition” value does the source give for `COc1ccc(C2CC(=O)N(Cc3ccccc3)c3c2c(C)nn3-c2nc(C)cc(C)n2)c(OC)c1` (configuration not stated) here?
Its value is inactive: 3.09%.

Which “outcome” value does the source give for `Cc1ccccc1CNC(=O)Nc1ccc2c(c1)N(C)C(=O)c1ccccc1S2` here?
Its value is “inactive”.

For `CCOC(=O)c1cc(C)n(CC2CCC(C(=O)Nc3ccc(C(=O)OC)cc3)CC2)c1C` (configuration not stated), which “outcome” value is on record?
The value was “inactive”.

For `CCOc1ccc(-c2oc3cc(Cl)ccc3c(=O)c2O)cc1OC`, which “outcome” value is on record?
Its value is “inactive”.

Which “activity change, negative = inhibition” value does the source give for `Cc1cccc(NS(=O)(=O)c2ccc(NC(=O)N3CCCC3)cc2)c1` here?
The value was inactive: -1.28%.

For `CCc1ccc(NS(=O)(=O)c2ccc3[nH]cc(C(=O)N(C)Cc4ccco4)c(=O)c3c2)cc1`, which “activity change, negative = inhibition” value is on record?
The value was inactive: 10.3%.

With `CCOC(=O)c1c(-c2ccccc2)oc2ccc(N(C(C)=O)S(=O)(=O)c3ccc(C)cc3)cc12` as the molecule, how does the “outcome” value read?
The value was “inactive”.

Which “activity change, negative = inhibition” value does the source give for `CCc1ccccc1NC(=O)Cn1cc2c(n1)CCC(C)C2` (configuration not stated) here?
The value was inactive: -5.55%.

For `CCC(=O)N1CCc2cc(Br)cc(S(=O)(=O)CCC(=O)NCCc3ccccc3)c21`, which “activity change, negative = inhibition” value is on record?
Its value is inactive: 13%.

With `CCCN(C(=O)CCNC(=O)Cn1cnc2ccccc2c1=O)c1cccc(C)c1` as the molecule, how does the “outcome” value read?
Its value is “inactive”.

With `CC(C)CN(CCNC(=O)c1cn(C)c2ccc(S(=O)(=O)N3CCCC3)cc2c1=O)CC(C)C` as the molecule, how does the “activity change, negative = inhibition” value read?
The value was inactive: 7.11%.

Which “activity change, negative = inhibition” value does the source give for `CCOC(=O)c1ccc2[nH]c(CSc3nnc(-c4cccc(F)c4)n3C)cc(=O)c2c1` here?
Its value is inactive: -0.36%.

Which “outcome” value does the source give for `Cc1cccc(NC(=O)COc2cccc3c(=O)n(C)ccc23)c1C` here?
The value was “inactive”.

Which “outcome” value does the source give for `CCOc1cc(C2c3c(oc4ccccc4c3=O)C(=O)N2c2ccccn2)ccc1O` (configuration not stated) here?
The value was “inactive”.

For `Cc1ccc(C)c(-c2[nH]c3c(c2-c2c(-n4cccc4)n(C)c(=O)n(C)c2=O)c(=O)n(C)c(=O)n3C)c1`, which “outcome” value is on record?
Its value is “inactive”.

For `Cc1ccc(-n2nc(C(=O)N3CCN(c4cccc(C(F)(F)F)c4)CC3)c3c4ccccc4n(C)c3c2=O)cc1`, which “outcome” value is on record?
Its value is “inactive”.

With `CCCc1cc(=O)[nH]c(Nc2cc(Cl)ccc2OC)n1` as the molecule, how does the “activity change, negative = inhibition” value read?
Its value is inactive: -8.45%.

With `CCC(C)NC(=O)c1sc2ncccc2c1-n1c(C)ccc1C` (configuration not stated) as the molecule, how does the “activity change, negative = inhibition” value read?
Its value is inactive: 4.71%.

For `CN(C(=O)CSc1nc2ccc(NC(=O)COc3ccccc3)cc2s1)c1ccccc1`, which “activity change, negative = inhibition” value is on record?
Its value is inactive: -18.8%.

Which “activity change, negative = inhibition” value does the source give for `Cc1ccc(CNc2nccn(-c3cc(C)cc(C)c3)c2=O)cc1` here?
The value was inactive: -0.944%.

Which “activity change, negative = inhibition” value does the source give for `COc1ccc(OC)c(NC(=O)c2cc(=O)c3c(C)cc(C)cc3o2)c1` here?
Its value is inactive: 0.347%.

For `CCOC(=O)c1c(NC(=O)c2cc(Cl)ccc2Cl)sc2c1CCCC2`, which “activity change, negative = inhibition” value is on record?
The value was inactive: -18.8%.

With `Cc1ccc(CNc2cc(C)nc3nc(-c4cccc(C)c4)nn23)cc1` as the molecule, how does the “outcome” value read?
The value was “inactive”.

Which “outcome” value does the source give for `CCOC(=O)c1cccc(NC(=O)CCc2c(C)nn(-c3ccc(N4CCOCC4)nn3)c2C)c1` here?
Its value is “inactive”.

For `COc1ccc(-c2ccc(CCC(=O)O)n2-c2ccc(Cl)cc2C)cc1`, which “activity change, negative = inhibition” value is on record?
Its value is inactive: 13.5%.

For `CCN(C(=O)CSc1nc2ccccc2n1CC(=O)Nc1ccc(F)cc1F)c1ccccc1`, which “outcome” value is on record?
The value was “inactive”.

With `CCN(C(=O)CSc1nc2n[nH]c(C)c2c(=N)n1-c1cccc(OC)c1)c1cccc(C)c1` as the molecule, how does the “activity change, negative = inhibition” value read?
The value was inactive: -13.1%.

Which “outcome” value does the source give for `Cc1cc(C)n(CCc2nc3c4ccccc4nc(N4CCN(c5ccc(F)cc5)CC4)n3n2)n1` here?
Its value is “inactive”.

For `Cc1cn2c(=O)c(S(=O)(=O)NCc3ccccc3Cl)c(C)nc2s1`, which “activity change, negative = inhibition” value is on record?
Its value is inactive: -7.87%.

For `COc1ccc(NC(=O)C2CCN(c3cnccn3)CC2)cc1Cl`, which “outcome” value is on record?
Its value is “inactive”.

For `Cc1ccc2[nH]c3c(=O)n(CC(=O)NCCc4ccc(Cl)cc4)ncc3c2c1`, which “activity change, negative = inhibition” value is on record?
The value was inactive: -0.955%.

Which “activity change, negative = inhibition” value does the source give for `CCn1cc(S(=O)(=O)c2cccc(C)c2)c(=O)c2cc(F)c(N3CCN(c4ccccc4)CC3)cc21` here?
The value was inactive: -0.208%.

Which “activity change, negative = inhibition” value does the source give for `COCCCn1c(=O)c2sccc2n2c(CCCC(=O)NCc3ccc(F)cc3)nnc12` here?
The value was inactive: -1.43%.

Which “activity change, negative = inhibition” value does the source give for `CCc1ccc(-n2nc(CO)c(C(=O)NCc3ccccc3OC)n2)cc1` here?
Its value is inactive: 0.35%.

Which “outcome” value does the source give for `COc1ccc(C2Oc3nc(SC)nnc3-c3ccccc3N2C(C)=O)cc1` (configuration not stated) here?
The value was “inactive”.

With `COc1ccc(C(=O)NC(c2ccc(Cl)cc2)c2cc(Cl)c3cccnc3c2O)cc1` (configuration not stated) as the molecule, how does the “activity change, negative = inhibition” value read?
Its value is inactive: 1.62%.

Which “activity change, negative = inhibition” value does the source give for `CC(=O)C1=C(O)C=C2Oc3c(C(C)=O)c(O)c(C)c(O)c3C2(C)C1=O` (configuration not stated) here?
Its value is inactive: -2.03%.

Which “activity change, negative = inhibition” value does the source give for `O=C(NCCc1ccccc1)c1ccc2c(c1)N(Cc1ccc(F)cc1)C(=O)c1ccccc1S2` here?
The value was inactive: -9.6%.

Which “outcome” value does the source give for `Cn1c(Oc2ccc(Cl)cc2)nc2c1c(=O)n(Cc1ccc(F)cc1)c(=O)n2C` here?
Its value is “inactive”.

For `COc1ccc(CCNC(=O)Cc2c(C)c3cc4c(C)coc4c(C)c3oc2=O)cc1`, which “activity change, negative = inhibition” value is on record?
The value was inactive: -22.3%.

With `COc1ccc(CCNC(=O)C2COc3ccccc3C2)cc1OC` (configuration not stated) as the molecule, how does the “activity change, negative = inhibition” value read?
Its value is inactive: -6.42%.

For `CCc1ccccc1NC(=O)CC1Sc2ccc(C(F)(F)F)cc2NC1=O` (configuration not stated), which “activity change, negative = inhibition” value is on record?
The value was inactive: 45.3%.

With `CCCCSc1nnc2c(n1)OC(C)N(C(C)=O)c1ccccc1-2` (configuration not stated) as the molecule, how does the “activity change, negative = inhibition” value read?
Its value is inactive: 2.25%.

For `Cc1cc(Nc2nc(N[C@@H](C)c3ncc(F)cn3)ncc2Cl)n[nH]1`, which “activity change, negative = inhibition” value is on record?
The value was inactive: 8.64%.

For `Cc1cc(C)cc(NC(=O)CCC(=O)N2CCSc3ccccc32)c1`, which “activity change, negative = inhibition” value is on record?
Its value is inactive: 3.51%.

Which “activity change, negative = inhibition” value does the source give for `CCCCN(CC)C(=O)c1cc2c(=O)n3cccc(C)c3nc2s1` here?
The value was inactive: -5.96%.

With `Cc1ccc(C)c(NS(=O)(=O)c2cc3c4c(c2)C(C)C(=O)N4CCC3)c1` (configuration not stated) as the molecule, how does the “outcome” value read?
The value was “inactive”.
